In paper PMC7262672:

Molecular target: T1, E. coli cysteine desulfurase IscS (Escherichia coli), P0A6B7
T1 chain: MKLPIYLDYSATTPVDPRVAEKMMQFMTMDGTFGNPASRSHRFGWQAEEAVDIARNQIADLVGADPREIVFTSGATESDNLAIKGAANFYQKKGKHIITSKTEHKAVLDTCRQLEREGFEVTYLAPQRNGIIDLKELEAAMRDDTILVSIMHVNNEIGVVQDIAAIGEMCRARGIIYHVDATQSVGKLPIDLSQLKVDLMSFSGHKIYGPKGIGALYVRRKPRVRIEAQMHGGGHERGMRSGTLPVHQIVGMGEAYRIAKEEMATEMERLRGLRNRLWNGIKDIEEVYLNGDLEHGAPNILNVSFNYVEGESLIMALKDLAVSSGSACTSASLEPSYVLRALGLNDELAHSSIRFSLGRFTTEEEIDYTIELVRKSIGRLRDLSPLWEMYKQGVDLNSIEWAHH
Experiment: native MS
Details: remark: other sources report otherwise

stoichiometry N: 2
B1: E. coli cysteine desulfurase IscS, P0A6B7 1-404 (enzyme)
chain: T1 chain
modifications: here or on the partner: PLP (5'-pyridoxal phosphate) cofactor; PLP (5'-pyridoxal phosphate) cofactor
